From PubChem BioAssay AID1461 (National Center for Advancing Translational Sciences (NCATS), 2008)
Out of some 220,000 compounds screened, about 2,300 (1%) were called active. This list was built around the results that the source calls inconclusive (neither active nor inactive); the mix of calls is not that of the screen. Calls come from the whole dose curve; as a rule, active = well fitted inhibition curve with a large enough effect; inconclusive = small, poorly fitted or top-dose-only effect, or effect the other way; inactive = no such curve, though single readings can be large or run the other way. No potency is given beside an inconclusive call; the fits are too rough.

target: Neuropeptide S receptor (Homo sapiens) (UniProt Q6W5P4); assay: qHTS Assay for Antagonists of the Neuropeptide S Receptor: cAMP Signal Transduction; settings: CHO-NPSR cells, cAMP TR-FRET, antagonist mode; series mostly up to 38.3 µM; note: nearly all actives have a fitted effect of over 50% in size
Potency is the fitted concentration of half-maximal effect; tags give direction and shape of the fitted curve.

UniProt Q6W5P4, sequence (Q6W5P4 whole entry, looked up): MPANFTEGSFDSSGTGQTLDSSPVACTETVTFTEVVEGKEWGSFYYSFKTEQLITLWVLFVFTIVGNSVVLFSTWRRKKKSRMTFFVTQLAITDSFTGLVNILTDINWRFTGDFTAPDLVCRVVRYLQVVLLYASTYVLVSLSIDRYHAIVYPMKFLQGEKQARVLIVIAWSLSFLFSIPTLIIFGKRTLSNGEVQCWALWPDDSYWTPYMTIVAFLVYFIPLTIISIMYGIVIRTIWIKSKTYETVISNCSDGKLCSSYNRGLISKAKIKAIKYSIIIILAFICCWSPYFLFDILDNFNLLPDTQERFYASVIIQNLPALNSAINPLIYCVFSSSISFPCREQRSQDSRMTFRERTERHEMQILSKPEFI

Compound	Potency
COc1ccc(N2CCC(CNC(=O)Nc3ccc(OC)cc3OC)C2)cc1 (stereo not drawn)	inconclusive [inhibitor, partial curve, poor fit]
CCN1CCN(Cc2nc3c(c(=O)n(C)c(=O)n3C)n2CCCc2ccccc2)CC1	inactive
O=C(CN(c1ccccc1)S(=O)(=O)c1ccccc1[N+](=O)[O-])NN=C1CCCCCCC1	inconclusive [inhibitor, single point]
O=c1oc(Nc2ccccc2F)nc2ccccc12	inconclusive [activator, single point]
CC(C)c1ccc(N2CCN(C(=O)c3ccccc3NC(=O)/C=C(\C(=O)O)c3ccccc3)CC2)cc1	inconclusive [inhibitor, single point]
CCC(=O)Nc1nc2n(n1)C(c1ccc(OC)cc1)C=C(c1ccccc1)N2 (stereo not drawn)	inconclusive [activator, full curve, poor fit]
Cn1c(=O)c2c(nc(CN3CCN(Cc4ccccc4)CC3)n2Cc2cccc(Cl)c2)n(C)c1=O	inconclusive [inhibitor, partial curve, poor fit]
COc1ccc2cc(CN(CC3CCCO3)S(=O)(=O)c3ccc(C(C)=O)cc3)c(=O)[nH]c2c1 (stereo not drawn)	inactive
Cc1cccc(NC(=O)CS(=O)(=O)c2c[nH]c3ccccc23)c1C	inactive
Cc1cccc(N2CCN(C(=O)C(C)n3nc(C)n4c(cc5occc54)c3=O)CC2)c1C (stereo not drawn)	inconclusive [inhibitor, partial curve, poor fit]
CC(=O)c1c(C)nc(-c2ccc(Cl)cc2)nc1NC(=O)C(C)C	inconclusive [activator, single point]
O=C(Cn1nnc(-c2ccccc2NC(=O)c2cccs2)n1)Nc1ccccc1	inconclusive [inhibitor, partial curve]
COc1ccc(N2CC(C)Cn3c2nc2c3c(=O)n(Cc3ccccc3F)c(=O)n2C)c(OC)c1 (stereo not drawn)	inconclusive [inhibitor, single point]
CCOC(=O)N1CCN(C(=O)CSc2ccc3nnc(-c4cccnc4)n3n2)CC1	inactive
CN(C)c1ncc(S(=O)(=O)c2ccc(Cl)cc2)c(-c2ccc(Cl)cc2Cl)n1	inconclusive [inhibitor, partial curve]
COC(=O)Cc1c(C)c2ccc(OCc3nn[nH]n3)cc2oc1=O	inconclusive [inhibitor, single point]
Cc1cccc2cc(CN(Cc3ccco3)C(c3nnnn3CCc3ccccc3)C(C)C)c(=O)[nH]c12 (stereo not drawn)	active: 12.6 µM
CN=C(Nc1ccc(Br)cc1)SC1CC(=O)N(c2ccc(OC)cc2)C1=O (stereo not drawn)	inconclusive [activator, single point]
CCC(C)C(=O)N1c2ccccc2C(=C2SC(C(=O)OC)=C(C(=O)OC)S2)C(=S)C1(C)C (stereo not drawn)	active: 10 µM
O=C(Nc1ccc(Br)cc1)C1CC=CCC1C(=O)OCC1CCCO1 (stereo not drawn)	inactive
Cc1ccc(NC(=O)CSC2=C(C#N)C(c3ccc4c(c3)OCO4)C3=C(CCCC3=O)N2)c(C)c1 (stereo not drawn)	inconclusive [inhibitor, partial curve]
Cc1cccc(C(=O)NNC(=O)/C=C/C(=O)O)c1	inactive

Compound	Potency
N=C1C(c2nc(-c3ccc(Cl)cc3)cs2)=C(O)CN1CCCN1CCOCC1	inconclusive [inhibitor, single point]
Cc1cccc(OCc2nc(-c3ccc(-n4cccc4)cc3)no2)c1	inconclusive [inhibitor, single point]
CC(C)(C)c1nc(NCCN2CCOCC2)c2nnn(Cc3ccccc3Cl)c2n1	inconclusive [inhibitor, single point]
CCOC(=O)C1=C(c2ccccc2)NC(SCC(=O)NC2CCCCC2)=C(C#N)C1c1ccco1 (stereo not drawn)	inconclusive [inhibitor, single point]
Cc1[nH]nc2c1C(c1ccccc1F)NC2=O (stereo not drawn)	inactive
CC(=O)n1cc([C@@H]2C=C(C(=O)N3CCN(Cc4ccc5c(c4)OCO5)CC3)O[C@H](OCc3ccc(CO)cc3)C2)c2ccccc21	inconclusive [activator, full curve, poor fit]
O=C(NCc1ccco1)C(c1ccccc1)N(C(=O)Cc1cccs1)c1ccccc1F (stereo not drawn)	inconclusive [inhibitor, single point]
Cc1ccc(S(=O)(=O)N(C)C)cc1NC(=O)Nc1ccccc1F	inactive
FC(F)(F)c1cccc(-c2ccn3ncnc3n2)c1	inactive
CC(=O)Oc1ccc2c(c1)OC(c1ccccc1)CC21CC(C)(C)NC(=S)N1 (stereo not drawn)	inactive
CC(C)CCNC(=O)C12CN(Cc3ccccc3)CC1C(c1cccc([N+](=O)[O-])c1)=NO2 (stereo not drawn)	inconclusive [inhibitor, partial curve]
Cc1nn2c(N3CCN(C)CC3)c3c(nc2c1-c1ccccc1)CCCC3	inconclusive [activator, partial curve]
O=C(Nc1nc(-c2cccs2)cs1)c1ccc(Cl)s1	inconclusive [inhibitor, partial curve, poor fit]
COC(=O)N=Nc1c(O)[nH]c2ccc(Br)cc12	inactive
Cc1ccc(S(=O)(=O)c2cc3cc(Br)ccc3oc2=O)cc1	inconclusive [inhibitor, single point]
O=C(NC(=S)Nc1cccc(Cl)c1N1CCCCC1)c1ccc2c(c1)OCCO2	inactive
CC(C)C(c1nnnn1Cc1ccccc1)N(Cc1ccco1)Cc1cccs1 (stereo not drawn)	inconclusive [inhibitor, partial curve]
O=C(CNCc1cccs1)Nc1ccc(S(=O)(=O)N2CCCCC2)cc1	inactive
Nc1cccc(C(=O)Nc2ccc(N)cc2Cl)c1	inconclusive [inhibitor, single point]
CN1CCN(C(=O)N2CCNC2=O)CC1	inconclusive [inhibitor, single point]
CC(C)(C)NC(=S)N/N=C/c1cc(Br)c(O)c(Br)c1	inconclusive [activator, single point]
